# Measurements published in US10093741.
# Target: insulin-like growth factor-1 receptor (IGF-1R) (human) (UniProt P08069)
# Test: cell-based or functional assay
# Chain of UniProt P08069 (P08069 31-1367): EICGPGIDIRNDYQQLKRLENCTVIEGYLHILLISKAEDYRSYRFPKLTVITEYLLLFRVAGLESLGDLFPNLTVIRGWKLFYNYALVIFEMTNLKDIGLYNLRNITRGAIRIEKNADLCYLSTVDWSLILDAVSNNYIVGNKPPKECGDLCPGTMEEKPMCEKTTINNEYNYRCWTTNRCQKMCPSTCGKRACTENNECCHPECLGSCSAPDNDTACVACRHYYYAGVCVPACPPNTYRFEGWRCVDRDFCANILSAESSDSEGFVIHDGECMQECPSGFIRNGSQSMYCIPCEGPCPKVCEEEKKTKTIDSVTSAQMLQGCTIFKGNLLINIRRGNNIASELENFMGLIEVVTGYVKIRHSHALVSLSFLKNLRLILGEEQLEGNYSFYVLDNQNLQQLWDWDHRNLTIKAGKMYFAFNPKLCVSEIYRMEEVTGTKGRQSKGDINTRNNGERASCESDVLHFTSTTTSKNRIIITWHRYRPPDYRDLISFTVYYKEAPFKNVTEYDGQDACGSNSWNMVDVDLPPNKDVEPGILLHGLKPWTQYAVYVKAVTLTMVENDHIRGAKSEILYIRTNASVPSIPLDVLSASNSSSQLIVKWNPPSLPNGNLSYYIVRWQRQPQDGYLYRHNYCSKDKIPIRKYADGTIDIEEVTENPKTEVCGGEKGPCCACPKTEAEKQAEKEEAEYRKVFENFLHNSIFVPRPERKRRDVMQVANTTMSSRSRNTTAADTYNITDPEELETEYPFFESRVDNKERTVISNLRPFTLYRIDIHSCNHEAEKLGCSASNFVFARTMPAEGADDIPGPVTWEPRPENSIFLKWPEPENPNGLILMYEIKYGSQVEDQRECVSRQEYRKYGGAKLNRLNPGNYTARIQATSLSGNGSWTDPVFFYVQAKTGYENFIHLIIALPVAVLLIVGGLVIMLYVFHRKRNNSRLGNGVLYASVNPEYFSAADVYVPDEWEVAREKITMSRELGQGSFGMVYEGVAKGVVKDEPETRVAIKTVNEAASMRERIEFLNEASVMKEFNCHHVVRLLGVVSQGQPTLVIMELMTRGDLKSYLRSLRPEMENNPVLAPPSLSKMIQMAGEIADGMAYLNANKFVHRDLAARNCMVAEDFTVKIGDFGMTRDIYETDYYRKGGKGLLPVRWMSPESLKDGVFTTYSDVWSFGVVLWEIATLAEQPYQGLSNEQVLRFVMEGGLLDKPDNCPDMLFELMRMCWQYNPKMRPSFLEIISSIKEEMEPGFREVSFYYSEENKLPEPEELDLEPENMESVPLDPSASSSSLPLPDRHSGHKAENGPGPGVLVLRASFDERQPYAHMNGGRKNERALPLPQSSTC
Binder,"Compound Potency (IC50; µg/mL): inhibition of IGF-1 ligand stimulated autophosphorylation of IGF-1R in A431 cells, phospho-IGF-1R ELISA [µg/mL]","Conjugate Potency (IC50; µg/mL): inhibition of IGF-1 ligand stimulated autophosphorylation of IGF-1R in A431 cells, phospho-IGF-1R ELISA; degree of substitution 3.8 DOTA/mAb [µg/mL]","Conjugate Potency (IC50; µg/mL): inhibition of IGF-1 ligand stimulated autophosphorylation of IGF-1R in A431 cells, phospho-IGF-1R ELISA; degree of substitution 4.9 DOTA/mAb [µg/mL]","Conjugate Potency (IC50; µg/mL): inhibition of IGF-1 ligand stimulated autophosphorylation of IGF-1R in A431 cells, phospho-IGF-1R ELISA; degree of substitution 6.4 DOTA/mAb [µg/mL]","Conjugate Potency (IC50; µg/mL): inhibition of IGF-1 ligand stimulated autophosphorylation of IGF-1R in A431 cells, phospho-IGF-1R ELISA; degree of substitution 7.4 DOTA/mAb [µg/mL]"
"Compound C-HuMIGF-1R (antibody, Compound C (DOTA-GA with PEG3 linker, TFP ester) conjugated to the antibody, sites not stated; no radiometal; batches with 1.9-7.4 DOTA per mAb) light: DVVMTQTPLSLPVSLGDPASISCRSSQSIVHSNVNTYLEWYLQKPGQSPRLLIYKVSNRFSGVPDRFSGSGAGTDFTLRISRVEAEDLGIYYCFQGSHVPPTFGGGTKLEIKRTVAAPSVFIFPPSDEQLKSGTASVVCLLNNFYPREAKVQWKVDNALQSGNSQESVTEQDSKDSTYSLSSTLTLSKADYEKHKVYACEVTHQGLSSPVTKSFNRGEC heavy: QVQLVQSGAEVVKPGASVKLSCKASGYTFTSYWMHWVKQRPGQGLEWIGEINPSNGRTNYNQKFQGKATLTVDKSSSTAYMQLSSLTSEDSAVYYFARGRPDYYGSSKWYFDVWGQGTTVTVSS[human IgG1 constant region omitted here]",0.09,0.07,0.1,0.13,0.14
"[^225Ac]-Compound C-HuMIGF-1R (antibody, Compound C (DOTA-GA with PEG3 linker, TFP ester) conjugated to the antibody, sites not stated; chelate loaded with 225Ac) light: DVVMTQTPLSLPVSLGDPASISCRSSQSIVHSNVNTYLEWYLQKPGQSPRLLIYKVSNRFSGVPDRFSGSGAGTDFTLRISRVEAEDLGIYYCFQGSHVPPTFGGGTKLEIKRTVAAPSVFIFPPSDEQLKSGTASVVCLLNNFYPREAKVQWKVDNALQSGNSQESVTEQDSKDSTYSLSSTLTLSKADYEKHKVYACEVTHQGLSSPVTKSFNRGEC heavy: QVQLVQSGAEVVKPGASVKLSCKASGYTFTSYWMHWVKQRPGQGLEWIGEINPSNGRTNYNQKFQGKATLTVDKSSSTAYMQLSSLTSEDSAVYYFARGRPDYYGSSKWYFDVWGQGTTVTVSS[human IgG1 constant region omitted here]",0.13,–,–,–,–
